Whole data set: some 33,000 sequences, median “E-score (-0.5 to 0.5)” near -0.032, cut for the highest 2% near 0.36. The list shows a part of the results.
The sequences below were run against T1, Sko1 (UniProt Q02100) (assay: PBM E-score (8-mer binding enrichment) (E-score (-0.5 to 0.5)); higher = stronger / more preferred TF binding; most listed sequences are background and not binding sites). Conditions: protein concentration: 200 nM; construct: GST-full length.
T1 sequence: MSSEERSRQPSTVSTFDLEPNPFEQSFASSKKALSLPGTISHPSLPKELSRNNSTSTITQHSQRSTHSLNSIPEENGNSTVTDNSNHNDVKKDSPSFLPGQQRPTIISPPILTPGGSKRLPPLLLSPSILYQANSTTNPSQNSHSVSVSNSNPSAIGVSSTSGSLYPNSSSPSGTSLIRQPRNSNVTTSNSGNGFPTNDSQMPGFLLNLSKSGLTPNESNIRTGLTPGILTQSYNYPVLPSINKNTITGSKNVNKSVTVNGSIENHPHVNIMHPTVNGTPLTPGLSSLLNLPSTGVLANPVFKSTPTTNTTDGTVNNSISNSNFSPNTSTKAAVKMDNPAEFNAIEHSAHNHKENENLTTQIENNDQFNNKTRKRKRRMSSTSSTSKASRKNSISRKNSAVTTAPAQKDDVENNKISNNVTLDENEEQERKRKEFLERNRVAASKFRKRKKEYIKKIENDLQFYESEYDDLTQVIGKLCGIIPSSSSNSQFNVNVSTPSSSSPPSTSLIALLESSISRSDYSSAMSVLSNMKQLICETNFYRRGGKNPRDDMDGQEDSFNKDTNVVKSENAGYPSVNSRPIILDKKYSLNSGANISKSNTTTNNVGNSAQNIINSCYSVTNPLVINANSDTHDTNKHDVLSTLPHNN
Description: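 Universal 'all 10-mer' protein binding microarrays (Agilent AMADID 015681) probed with GST-tagged S. cerevisiae TFs (full-length or DBD) made by in vitro transcription/translation (PURExpress), about 100-200 nM. Bound TF was detected with fluorescent anti-GST. Each ungapped 8-mer (which stands for itself and its reverse complement) is scored by the PBM enrichment score (E-score), a modified Wilcoxon-Mann-Whitney statistic from -0.5 to +0.5, computed with the Universal PBM Analysis Suite. Scale: above 0.35 generally sequence-specific binding.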
For ACAACGGG, the “PBM E-score” value was -0.0547.
AGAATCAC was tested, and the “PBM E-score” value was 0.108.
With CCACGTCG the “PBM E-score” value was 0.168.
In the case of CGACTAGA, the “PBM E-score” value was -0.0947.
CCAGGCTA was tested, and the “PBM E-score” value was -0.405.
ACTCACCG was tested, and the “PBM E-score” value was -0.128.
With CATTTGAC the “PBM E-score” value was 0.19.
For CCGACGGA, the “PBM E-score” value was -0.237.
With GTAGGACA the “PBM E-score” value was 0.0127.
In the case of CTTGAGCA, the “PBM E-score” value was -0.161.
In the case of ACGGCAAT, the “PBM E-score” value was 0.174.
In the case of CAGGCTCG, the “PBM E-score” value was -0.106.
In the case of TCACGTGA, the “PBM E-score” value was 0.336.
GTCCCAAA was tested, and the “PBM E-score” value was -0.0266.
For CTAACTAC, the “PBM E-score” value was 0.107.
For GCGACTCA, the “PBM E-score” value was -0.134.
With GGAACAAA the “PBM E-score” value was 0.101.
For GAAAATTA, the “PBM E-score” value was 0.135.
With CTAGGACC the “PBM E-score” value was -0.305.
For AGTAGAGA, the “PBM E-score” value was -0.0942.
With TACCGGAA the “PBM E-score” value was 0.0144.
CTCGGTAC was tested, and the “PBM E-score” value was -0.0539.
With CCCGACAA the “PBM E-score” value was -0.0755.
With CCCGCGTA the “PBM E-score” value was 0.0208.
With ACAATGGG the “PBM E-score” value was -0.0973.
With GCGCTCAC the “PBM E-score” value was -0.126.
With CGTCTGTA the “PBM E-score” value was 0.0784.
In the case of AGTATAAA, the “PBM E-score” value was 0.141.
In the case of AGGATGAA, the “PBM E-score” value was -0.0733.
ATGGGCAC was tested, and the “PBM E-score” value was -0.0936.
In the case of GAGCGGGC, the “PBM E-score” value was -0.221.
With AGACAATC the “PBM E-score” value was 0.0537.
With AAAGCTCA the “PBM E-score” value was 0.0637.
GAAACCCA was tested, and the “PBM E-score” value was -0.107.
For CTTAACAA, the “PBM E-score” value was 0.0987.
AGTCCCGG was tested, and the “PBM E-score” value was -0.356.
With ATCTGTTG the “PBM E-score” value was -0.116.
In the case of TGAGACCA, the “PBM E-score” value was 0.0502.
For CACGTTAA, the “PBM E-score” value was 0.244.
With AGCTGCGG the “PBM E-score” value was -0.224.
GCGCTATA was tested, and the “PBM E-score” value was 0.0962.
With ACAGATCG the “PBM E-score” value was -0.0395.
In the case of CTGCACGC, the “PBM E-score” value was -0.147.
AAGCCTAG was tested, and the “PBM E-score” value was -0.0672.
For GCTTATAA, the “PBM E-score” value was 0.11.
ACCGCAGA was tested, and the “PBM E-score” value was -0.179.
For TCTCGAGA, the “PBM E-score” value was 0.0362.
In the case of AGATCAAT, the “PBM E-score” value was -0.103.
With AGGTCTAT the “PBM E-score” value was -0.101.
For CTATATGC, the “PBM E-score” value was 0.0474.
For CGACGCTA, the “PBM E-score” value was -0.00059.
GATCTAGC was tested, and the “PBM E-score” value was -0.135.
For CCGATAAG, the “PBM E-score” value was -0.199.
AATTTGAA was tested, and the “PBM E-score” value was 0.096.
In the case of AGCCGAGG, the “PBM E-score” value was -0.0722.
ACATGTTA was tested, and the “PBM E-score” value was 0.242.
For CTAGTATC, the “PBM E-score” value was -0.069.
In the case of AACATACT, the “PBM E-score” value was 0.0365.
With CATAAGCA the “PBM E-score” value was -0.085.
In the case of TAACACCA, the “PBM E-score” value was 0.143.
In the case of ACATTATG, the “PBM E-score” value was 0.175.
In the case of AGGTGTGC, the “PBM E-score” value was -0.152.
For AGCCTTAG, the “PBM E-score” value was -0.157.
In the case of GATTGAAA, the “PBM E-score” value was 0.073.
For CCCGTGCA, the “PBM E-score” value was -0.28.
For CCTCAGAG, the “PBM E-score” value was -0.374.
TACGCGCA was tested, and the “PBM E-score” value was 0.209.
ACGACAGT was tested, and the “PBM E-score” value was 0.126.
AATACTCA was tested, and the “PBM E-score” value was 0.145.
GTCCCAGA was tested, and the “PBM E-score” value was -0.233.
For CGAACATC, the “PBM E-score” value was -0.0609.
In the case of AGTCTGGC, the “PBM E-score” value was -0.216.
In the case of CTCACGAC, the “PBM E-score” value was -0.102.
With CCCAAAAG the “PBM E-score” value was -0.0879.
AAGGCTGG was tested, and the “PBM E-score” value was -0.203.
For AGTGGAGA, the “PBM E-score” value was -0.0245.
ATAGGGGG was tested, and the “PBM E-score” value was -0.393.
ATAGTGGC was tested, and the “PBM E-score” value was 0.0864.
With AAGGAACG the “PBM E-score” value was -0.0151.
For ATCATACG, the “PBM E-score” value was 0.365.
With AGCCGCCG the “PBM E-score” value was -0.134.
In the case of AACACCTG, the “PBM E-score” value was 0.133.
With ATACTGAA the “PBM E-score” value was 0.185.
In the case of CATACTGG, the “PBM E-score” value was 0.0303.
In the case of GTTCTGTA, the “PBM E-score” value was 0.0879.
ATACGAGC was tested, and the “PBM E-score” value was 0.174.
With AGAACATA the “PBM E-score” value was 0.1.
In the case of ACTTCAGG, the “PBM E-score” value was -0.126.
In the case of CAACGCCA, the “PBM E-score” value was -0.00072.
TTCCCAAA was tested, and the “PBM E-score” value was 0.105.
In the case of CATGCTGA, the “PBM E-score” value was -0.0126.
In the case of GCCCTATA, the “PBM E-score” value was -0.184.
With ATCCGGCC the “PBM E-score” value was -0.275.
In the case of CTTGACAC, the “PBM E-score” value was -0.0385.
With ACGTGCGC the “PBM E-score” value was 0.381.
For TAAAAAGA, the “PBM E-score” value was 0.119.
With ACGACGAC the “PBM E-score” value was 0.00819.
For ATGTGTAA, the “PBM E-score” value was 0.121.
With CAGTGCGC the “PBM E-score” value was -0.182.
For GAACATCA, the “PBM E-score” value was 0.0684.
GCTCGTCC was tested, and the “PBM E-score” value was -0.0225.
With AGGCTATG the “PBM E-score” value was -0.23.
For GAGTTAAC, the “PBM E-score” value was -0.0263.
With CCAGGCGC the “PBM E-score” value was -0.211.
For CGTGATTA, the “PBM E-score” value was 0.314.
CTGGAACC was tested, and the “PBM E-score” value was -0.202.
In the case of AACCAGCT, the “PBM E-score” value was 0.133.
With AGTCAGAT the “PBM E-score” value was -0.00841.
For CTTAACGC, the “PBM E-score” value was -0.00058.
ACCCCAGG was tested, and the “PBM E-score” value was -0.411.
CGTTGACC was tested, and the “PBM E-score” value was 0.107.
For CCAATGGA, the “PBM E-score” value was -0.215.
With CAGCTGGC the “PBM E-score” value was -0.162.
In the case of GAAGCATC, the “PBM E-score” value was -0.0844.
For CGAAATAC, the “PBM E-score” value was 0.298.
GTTGCGTA was tested, and the “PBM E-score” value was 0.422.
For AAGCTATA, the “PBM E-score” value was 0.0223.
In the case of CAAGGGTC, the “PBM E-score” value was -0.229.
For AGCAAATA, the “PBM E-score” value was 0.0649.
GGCTCTAA was tested, and the “PBM E-score” value was -0.0936.
In the case of CAGCCATG, the “PBM E-score” value was -0.143.
CGTAACGC was tested, and the “PBM E-score” value was 0.34.
In the case of AGGTCAAG, the “PBM E-score” value was -0.193.
In the case of GCAGCTCC, the “PBM E-score” value was -0.268.
For CCCGCTTA, the “PBM E-score” value was -0.106.
For TACTAGAA, the “PBM E-score” value was 0.124.
GGTTAGAA was tested, and the “PBM E-score” value was 0.00193.
For ATCTCGTA, the “PBM E-score” value was 0.319.
For CGAGGTGC, the “PBM E-score” value was 0.00617.
For GCTAGCTA, the “PBM E-score” value was -0.0689.
With ACGTAAGC the “PBM E-score” value was 0.455.
For AACGGAGT, the “PBM E-score” value was -0.09.
For ATGGAGAC, the “PBM E-score” value was -0.0982.
For ATTATATC, the “PBM E-score” value was 0.232.
For CATGCACC, the “PBM E-score” value was -0.195.
CTCGAGTC was tested, and the “PBM E-score” value was -0.129.
With GAGCCCAA the “PBM E-score” value was -0.0851.
With GGTATGAA the “PBM E-score” value was 0.0631.
CTGCGTGA was tested, and the “PBM E-score” value was 0.188.
With AAGATTGC the “PBM E-score” value was -0.0262.
In the case of GGGTTGCA, the “PBM E-score” value was -0.00077.
For CGGTATTC, the “PBM E-score” value was -0.043.
In the case of CCAGATAG, the “PBM E-score” value was -0.133.
With AAAGTTAT the “PBM E-score” value was 0.265.
In the case of GTCCCACA, the “PBM E-score” value was -0.00469.
For AGTAACTC, the “PBM E-score” value was -0.0356.
With AACTTGAG the “PBM E-score” value was -0.0272.
ATGTGCTA was tested, and the “PBM E-score” value was 0.174.
In the case of CGACCATC, the “PBM E-score” value was -0.16.
With CATCCACA the “PBM E-score” value was 0.0411.
In the case of ACGCTAAG, the “PBM E-score” value was -0.0101.
For GGACAGGA, the “PBM E-score” value was -0.217.
With GTAGTACA the “PBM E-score” value was 0.171.
In the case of ATCACGAT, the “PBM E-score” value was 0.208.
In the case of ATCGAAGG, the “PBM E-score” value was 0.0197.
GTGTGAAA was tested, and the “PBM E-score” value was 0.129.
For CCCACCGA, the “PBM E-score” value was -0.182.
For GGCAGATA, the “PBM E-score” value was -0.0846.
GCCGTCGC was tested, and the “PBM E-score” value was -0.133.
In the case of CTATCTGA, the “PBM E-score” value was -0.135.
For CGATTTCC, the “PBM E-score” value was -0.108.
CAGGTCAC was tested, and the “PBM E-score” value was -0.288.
In the case of TAATCTGA, the “PBM E-score” value was 0.155.
In the case of ACGCTTTA, the “PBM E-score” value was 0.026.
For GGTTAAGA, the “PBM E-score” value was 0.0672.
With ACGCAGAG the “PBM E-score” value was 0.108.
In the case of CAGGCGAC, the “PBM E-score” value was -0.08.
In the case of AGCAAAGG, the “PBM E-score” value was -0.163.
In the case of GGCGATTA, the “PBM E-score” value was 0.0687.
AATGCTAA was tested, and the “PBM E-score” value was 0.102.
AGTGTGGG was tested, and the “PBM E-score” value was -0.197.
For CTTTTATC, the “PBM E-score” value was -0.0451.

Reference: the supplement of paper PMC3334620
